Reference: the RNAGym collection of RNA variant scans (doi:10.7554/elife.90254)
Read counts are not given, so values of variants with three or more changes are uncertain.

B1: OR4K15 (parent)
chain: GUUAACGGUCAUAGGCCAUGGAAACUAGGAGCACCAUUUCGCUGCCAGUGAAGAAAUGAACAAAGAAAAUCUGGGCCAGGCAGGCAUCAAAAGAAAUAGUCUUGCGCUCAACCAGAAAGUCUGUAAUCAUUUUAAGGGUA

Variants of: B1
Assay: self-cleavage, relative activity (ratio to wild type); higher = more cleavage; in vitro, sequencing; the parent is a self-cleaving ribozyme

Question: With A67G U100A A110G as the variant, how does the self-cleavage read?
Answer: The self-cleavage was 0.03.

Question: Which self-cleavage does the source give for A5G A56G A62C here?
Answer: The self-cleavage was 0.97.

Question: Which self-cleavage does the source give for A56U A68U U70C A82G here?
Answer: Its self-cleavage is 0.16.

Question: For A11G A64G U103C, which self-cleavage is on record?
Answer: Its self-cleavage is 0.75.

Question: For A60U C81A U133C, which self-cleavage is on record?
Answer: The self-cleavage was 0.14.

Question: With A11G A92G A116G as the variant, how does the self-cleavage read?
Answer: The self-cleavage was 0.

Question: Which self-cleavage does the source give for A95G U120G A125U here?
Answer: Its self-cleavage is 2.57.

Question: Which self-cleavage does the source give for A30U A54G U72C here?
Answer: The self-cleavage was 0.27.

Question: With C32U A47G A96G as the variant, how does the self-cleavage read?
Answer: The self-cleavage was 1.1.

Question: Which self-cleavage does the source give for U39C A52G C85U A125G here?
Answer: The self-cleavage was 0.14.

Question: Which self-cleavage does the source give for U57C A116G U122G here?
Answer: Its self-cleavage is 0.17.

Question: With U57A U100C C112G as the variant, how does the self-cleavage read?
Answer: The self-cleavage was 0.02.

Question: For A24G A33G A63G A111G, which self-cleavage is on record?
Answer: The self-cleavage was 0.05.

Question: Which self-cleavage does the source give for U43C U57C A82G U127C here?
Answer: The self-cleavage was 0.13.

Question: With A78G A96G A98U as the variant, how does the self-cleavage read?
Answer: The self-cleavage was 0.19.

Question: With A22U A92G U120A as the variant, how does the self-cleavage read?
Answer: The self-cleavage was 2.03.

Question: For A54G A64G A96G, which self-cleavage is on record?
Answer: The self-cleavage was 2.54.

Question: Which self-cleavage does the source give for U19C A91G A118U A134G here?
Answer: Its self-cleavage is 0.22.

Question: With U38C A55C A96G as the variant, how does the self-cleavage read?
Answer: The self-cleavage was 1.17.

Question: For A78G A92G A110U U131C, which self-cleavage is on record?
Answer: The self-cleavage was 0.44.

Question: With A66G C109A A118G U120C as the variant, how does the self-cleavage read?
Answer: Its self-cleavage is 0.12.

Question: For U49C A55G A94G, which self-cleavage is on record?
Answer: Its self-cleavage is 0.91.

Question: Which self-cleavage does the source give for A22G A56G A82G A114G here?
Answer: Its self-cleavage is 0.03.

Question: For A18C C46A A91G, which self-cleavage is on record?
Answer: Its self-cleavage is 0.84.

Question: For A18G A55U U127C, which self-cleavage is on record?
Answer: Its self-cleavage is 1.23.

Question: With U43C A90G U108C as the variant, how does the self-cleavage read?
Answer: Its self-cleavage is 0.01.

Question: For A5G A27U U108C A126G, which self-cleavage is on record?
Answer: Its self-cleavage is 0.03.

Question: With A68G G73A U130C as the variant, how does the self-cleavage read?
Answer: The self-cleavage was 0.22.

Question: Which self-cleavage does the source give for A55G A59U A67G U72A here?
Answer: Its self-cleavage is 0.

Question: With U3C A55G A91U as the variant, how does the self-cleavage read?
Answer: Its self-cleavage is 1.2.

Question: Which self-cleavage does the source give for A52U A78G A89G G106A here?
Answer: The self-cleavage was 0.02.

Question: Which self-cleavage does the source give for A18C C40A A82G here?
Answer: The self-cleavage was 0.84.

Question: With A24U A52G A89G A96G as the variant, how does the self-cleavage read?
Answer: The self-cleavage was 0.69.

Question: With U19C A60G U102C U124A as the variant, how does the self-cleavage read?
Answer: The self-cleavage was 0.75.

Question: For U37C A90G A95G U100C, which self-cleavage is on record?
Answer: The self-cleavage was 1.59.

Question: For U9A A11G A82G U87C A111G A114U, which self-cleavage is on record?
Answer: The self-cleavage was 0.03.

Question: With A78G A114C A118C A129G as the variant, how does the self-cleavage read?
Answer: Its self-cleavage is 0.

Question: With A23G G99A U102C as the variant, how does the self-cleavage read?
Answer: Its self-cleavage is 0.79.

Question: For C6U A11G A67G U72C G75C A86G U97C, which self-cleavage is on record?
Answer: The self-cleavage was 0.05.

Question: With U26C A47G A64U A111G as the variant, how does the self-cleavage read?
Answer: The self-cleavage was 0.04.

Question: Which self-cleavage does the source give for G41A A52U U130C here?
Answer: Its self-cleavage is 1.57.

Question: Which self-cleavage does the source give for U57C A62U U103C U130C here?
Answer: Its self-cleavage is 0.32.

Question: Which self-cleavage does the source give for U38C A90G A118G here?
Answer: The self-cleavage was 1.88.

Question: With A47U A51G A96G U122C as the variant, how does the self-cleavage read?
Answer: The self-cleavage was 0.28.

Question: With A22G U37A A47G A54G G74A A135G U139C as the variant, how does the self-cleavage read?
Answer: The self-cleavage was 0.24.

Question: With U49C A55G A135U as the variant, how does the self-cleavage read?
Answer: The self-cleavage was 1.58.

Question: Which self-cleavage does the source give for A27C A64G A68G here?
Answer: Its self-cleavage is 1.31.

Question: Which self-cleavage does the source give for A67G A69G U97A U108C here?
Answer: Its self-cleavage is 0.02.

Question: Which self-cleavage does the source give for U39C A91G A110G here?
Answer: The self-cleavage was 0.11.

Question: Which self-cleavage does the source give for U103C A111G A129G A134G U139C here?
Answer: Its self-cleavage is 0.

Question: Which self-cleavage does the source give for U19C U49C A67G A86G U122A here?
Answer: The self-cleavage was 1.35.

Question: Which self-cleavage does the source give for A4G A52G A56G U87C here?
Answer: The self-cleavage was 0.58.

Question: Which self-cleavage does the source give for U9A A13G A23G U43C U72C here?
Answer: Its self-cleavage is 0.57.

Question: With A22U A36G A64G A92G as the variant, how does the self-cleavage read?
Answer: The self-cleavage was 1.62.

Question: For C17U A55G A110G A126C, which self-cleavage is on record?
Answer: The self-cleavage was 0.11.

Question: With A18G A91G A92U A114U A116G U132C as the variant, how does the self-cleavage read?
Answer: Its self-cleavage is 0.01.

Question: For U19A A54G A91G A114G, which self-cleavage is on record?
Answer: The self-cleavage was 0.06.

Question: Which self-cleavage does the source give for A55C U127A A135G here?
Answer: The self-cleavage was 0.88.

Question: For A30G U57A U124C, which self-cleavage is on record?
Answer: The self-cleavage was 0.75.

Question: With U12A A62G U103C as the variant, how does the self-cleavage read?
Answer: The self-cleavage was 1.4.

Question: For A67G A82G U108C, which self-cleavage is on record?
Answer: The self-cleavage was 0.05.

Question: For A51C C81U A94G U127C, which self-cleavage is on record?
Answer: Its self-cleavage is 0.01.

Question: For A11G U49C A51G A86G, which self-cleavage is on record?
Answer: The self-cleavage was 1.25.

Question: Which self-cleavage does the source give for A4G A11U A63G A92G U120C U132A here?
Answer: Its self-cleavage is 0.78.

Question: Which self-cleavage does the source give for C46U U87C A135G here?
Answer: The self-cleavage was 1.17.

Question: Which self-cleavage does the source give for A27G U49C A54G A94G A116G U127A here?
Answer: The self-cleavage was 0.33.

Question: For A5G U43G A90G U108A, which self-cleavage is on record?
Answer: The self-cleavage was 0.05.

Question: With U108A A116U U131C as the variant, how does the self-cleavage read?
Answer: Its self-cleavage is 0.

Question: With A18G A92G A126G as the variant, how does the self-cleavage read?
Answer: The self-cleavage was 0.73.

Question: With A59G G80A U87A U133C as the variant, how does the self-cleavage read?
Answer: The self-cleavage was 0.25.

Question: With A60G A69G A96G U127A as the variant, how does the self-cleavage read?
Answer: Its self-cleavage is 1.48.

Question: For A5G A24G U43C A90U A140U, which self-cleavage is on record?
Answer: The self-cleavage was 1.24.

Question: For A11U A68G U97C U102C U127C, which self-cleavage is on record?
Answer: The self-cleavage was 1.59.

Question: Which self-cleavage does the source give for A91U U120C U122A here?
Answer: Its self-cleavage is 2.37.

Question: With A52G A55G A68G A90G A92G as the variant, how does the self-cleavage read?
Answer: Its self-cleavage is 1.27.

Question: Which self-cleavage does the source give for A11U U57C A95G A118G A126G U133C here?
Answer: Its self-cleavage is 0.86.

Question: With U37C A56G A110G A117G as the variant, how does the self-cleavage read?
Answer: The self-cleavage was 0.3.

Question: For A24U A62G A89G, which self-cleavage is on record?
Answer: The self-cleavage was 1.3.

Question: Which self-cleavage does the source give for A11G U39A A111G here?
Answer: The self-cleavage was 0.02.

Question: Which self-cleavage does the source give for A24G A63G A92G here?
Answer: The self-cleavage was 1.18.

Question: With A5G C32G U102A as the variant, how does the self-cleavage read?
Answer: Its self-cleavage is 0.65.

Question: Which self-cleavage does the source give for U12C C32U A55U U72C here?
Answer: Its self-cleavage is 0.44.

Question: For A55G U102C A118G, which self-cleavage is on record?
Answer: Its self-cleavage is 1.47.

Question: Which self-cleavage does the source give for A52G A62U A92G here?
Answer: The self-cleavage was 0.28.
